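Where inhibition never reached the appropriate level, the endpoint shown equals the highest concentration tested. Otherwise, values were interpolated linearly from a five-concentration, 48-hour dose response in 96-well plates. The concentration for 50% growth inhibition is given as GI50. TGI denotes the concentration required for complete inhibition of growth.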
Tested on: NCI-H322M lung
Experiment: growth of human tumour cells (NCI), 48 h

Row | SMILES | GI50 [nM] | TGI [µM]
1 | Cc1ccc(C(C)C)cc1Oc1cccc(-c2c(-c3ccc(C(F)(F)F)cc3)ncn2C2CCNCC2)n1 | 1520 | 2.85
2 | COc1ccc(NC(=O)CSc2nnc(-c3ccc(-c4nc5ccc(Cl)cc5[nH]4)cc3)o2)cc1 | 3670 | 20.6

Reference: PubChem BioAssay (NCI)
